# Test results reported in the supplement of paper PMC3334620.
# Over roughly 33,000 sequences, “E-score (-0.5 to 0.5)” has its median near -0.04; the highest 2% begin near 0.36. This is one part of the list.
# Molecular target: T1, Hmlalpha2 (UniProt P0CY09)
# T1 sequence: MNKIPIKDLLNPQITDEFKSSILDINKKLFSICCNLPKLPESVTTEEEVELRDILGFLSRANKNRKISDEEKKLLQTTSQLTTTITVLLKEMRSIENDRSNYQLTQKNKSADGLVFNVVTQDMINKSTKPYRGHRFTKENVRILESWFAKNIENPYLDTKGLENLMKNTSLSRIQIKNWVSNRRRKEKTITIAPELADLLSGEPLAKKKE
# Assay: PBM E-score (8-mer binding enrichment) (E-score (-0.5 to 0.5)); higher = stronger / more preferred TF binding; most listed sequences are background and not binding sites
# Details: protein concentration: 200 nM; construct: GST-full length
# Summary of the method: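 Universal all-10-mer Agilent arrays, fresh or stripped once, were converted to double-stranded form by primer extension. GST-tagged yeast transcription factors from PURExpress in vitro transcription/translation, full-length or DNA-binding domain only, were applied at about 100-200 nM and detected with fluorescent anti-GST. After masliner normalisation, the Universal PBM Analysis Suite scored each ungapped eight-base word together with its reverse complement by E-score.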
row,Sequence,PBM E-score
1,GTCCGCAA,-0.224
2,GCCTTTCA,-0.215
3,GGAGTCAC,-0.228
4,AGACAAGG,0.0129
5,CGGCAGCA,-0.15
6,TCGTGGCA,0.0265
7,CGACTTCC,-0.102
8,GCGCTTAA,-0.00823
9,AAATACTC,0.0334
10,GCGTCTAA,0.0136
11,CGAGAGGC,-0.268
12,ACCTACCA,-0.136
13,AGGTCGCG,-0.156
14,CGCTAGAA,-0.237
15,ATGGCGGG,-0.264
16,ACTTATCC,-0.0606
17,AGTTGAGG,-0.156
18,GCCTGGAC,-0.156
19,AAGGTTTC,-0.0464
20,ACCTGCTA,-0.104
21,GAGCTTGA,-0.0765
22,CGGAACCC,-0.13
23,ATTGAATC,-0.00112
24,AGAGAAGG,-0.317
25,AGACTAAG,-0.0834

row,Sequence,PBM E-score
1,ATTTCACG,0.0853
2,GGAAAATA,0.063
3,GAGCCTGA,-0.237
4,CCATAACG,-0.0424
5,AACGTCTA,0.039
6,GAAGGTTA,-0.023
7,ATAACTTC,0.104
8,GCCACTGA,-0.155
9,CCCTTGAG,-0.247
10,AAGGAGGA,-0.0636
11,GTAGAGGA,-0.0447
12,CATTTGTC,0.0765
13,CATGAGGG,-0.0525
14,GCCAGAGA,-0.337
15,CATACTGA,0.0935
16,ACCCTCGG,-0.155
17,GACATACA,0.315
18,ACTAACTG,0.0122
19,AACGCCGT,0.0331
20,AATCAGCG,0.0106
21,GCTGTATA,0.153
22,ACACTGGA,0.106
23,AAATTCTC,-0.0944
24,GCATGGGA,-0.142
25,GATCCCAA,-0.203

row,Sequence,PBM E-score
1,CGACCTGA,0.0768
2,CCTATTGC,-0.112
3,AAATACCT,-0.00338
4,AAGACTGC,-0.135
5,TAAATAGA,0.0679
6,AGCGACTG,0.0914
7,ACACAGCA,0.358
8,CAGGAGCA,-0.173
9,CATCGTCC,-0.0774
10,GCGGCCGA,-0.0773
11,ATCACACG,0.371
12,CGGTTTGA,-0.00743
13,ATTCTGAA,-0.0572
14,AGGGTTTG,-0.0574
15,AAGTTTAG,0.0291
16,CACCGCGC,-0.194
17,CCGAGCGG,-0.261
18,AGGAATCG,-0.0981
19,AGCCTCAG,-0.219
20,GTCATTTA,0.129
21,CATGGTGC,-0.0596
22,AAAGATTG,-0.157
23,CGGTTTGC,-0.0322
24,ACTTAGGG,-0.0611
25,CTGAATCC,-0.154

row,Sequence,PBM E-score
1,GGGCGGCA,-0.297
2,ATTGGTGA,-0.232
3,CGTGGTGC,-0.085
4,GGATGAGA,-0.127
5,CCACATGC,0.137
6,GAGTTCAA,0.128
7,AAGATCCC,-0.145
8,AGGCGATC,-0.142
9,ACCGCGAT,-0.0546
10,GCGCCAAC,-0.0446
11,ATTAAAAC,0.26
12,TCTTCTCA,-0.172
13,CGCGGGAG,-0.317
14,ACCAGAGT,0.0585
15,GATCCTGC,-0.0726
16,AGAGTCCT,-0.277
17,TACTGCCA,-0.0257
18,CCCGAAGC,-0.203
19,GACCCAGA,-0.168
20,CACTTATG,0.00149
21,AGTGTACC,-0.201
22,TAGCCCGA,-0.335
23,CCGATGAA,-0.188
24,CTTTTTTC,-0.134
25,CTGGTTCC,-0.208

row,Sequence,PBM E-score
1,GCCGGCGC,-0.136
2,ACTACGAT,0.0473
3,CAGGAGCC,-0.225
4,AGTGCGCA,-0.178
5,ATGCGCCG,-0.109
6,GTGGCACA,-0.174
7,AGGTTGGC,-0.123
8,ATGCGCTC,0.0131
9,ACACCTTA,0.16
10,TGATTCCA,-0.0656
11,AATGCAGG,0.0917
12,ATTGTCGA,-0.0455
13,ACATAAGA,0.282
14,CACATGTC,0.22
15,CGTATCAA,-0.0948
16,GCACTTGA,0.0926
17,CTGATCAG,-0.0949
18,AACAATAG,0.0597
19,ATCACGAC,-0.0357
20,AGATTCTC,-0.064
21,CAATTCCG,-0.136
22,GACAGACC,-0.137
23,AACAGCAG,0.114
24,AGATGCAA,-0.151
25,AACAGACA,0.189

row,Sequence,PBM E-score
1,CATCTACC,-0.0147
2,AACACGGA,0.374
3,ATAGTGCG,-0.138
4,ACTAAGTA,0.204
5,CCGGCCAC,-0.256
6,AAGGGCGC,0.0554
7,AGGTATGC,0.119
8,TAAATAAA,0.262
9,CAGCGTTA,-0.0524
10,CGGACTTA,-0.056
11,GACAGGTC,-0.23
12,GCAGGCGA,-0.0959
13,CCTTAAGC,-0.283
14,ACTGGGGC,-0.307
15,CGACGAGC,-0.00952
16,TCGGAGAA,-0.145
17,TCGAGCAA,0.128
18,AGGACATG,0.181
19,ATAGGCGA,-0.264
20,GGCTGACC,-0.287
21,AACAATCG,0.15
22,CGGTCTAC,0.114
23,GATAACCA,-0.14
24,CGTTAGTA,0.249
25,CGTCCGAG,-0.136

row,Sequence,PBM E-score
1,AACTAGTG,-0.101
2,AGTCGGGG,-0.191
3,CAATCCTA,-0.127
4,AGACCTAG,-0.149
5,GGCACGCA,-0.23
6,CCCCTAGC,-0.325
7,ACAGTAAC,0.124
8,ACGCGGGG,0.0705
9,CACTGCTA,0.0812
10,CTATCACC,-0.201
11,AGACGCTC,-0.355
12,AGATCCCA,-0.135
13,CTTTACAA,0.38
14,CTTCTTGA,-0.0801
15,CTCTGCGA,-0.0391
16,AAATACGT,0.246
17,TATGTCGA,0.327
18,CTCGTTAC,0.0938
19,CCGACCCC,-0.294
20,AAGGCTCC,-0.228
21,CTTGTCTA,0.147
22,AACGAACG,0.047
23,AGATTGTC,-0.0562
24,GGAGTCAA,-0.222
25,ACCAGAGA,-0.144

row,Sequence,PBM E-score
1,GCACTAAA,0.0494
2,GGCGAATA,-0.0919
3,ACTGGACG,-0.103
4,CAGCTGGA,0.0103
5,GTTAACGA,0.248
6,GCTAGGCC,-0.298
7,AACTATGG,-0.0851
8,AGTATTAT,0.137
9,AGAACTTC,-0.0854
10,CTATTTGA,0.059
11,CCCACCCA,-0.227
12,TAATGTCA,0.155
13,GAAGATAC,-0.0338
14,AACTAGGA,-0.00347
15,AGGACAGG,-0.27
16,CAAAAATG,0.0505
17,CCTGACGC,-0.345
18,AAAGGTTG,-0.227
19,CAGCTAGA,0.00712
20,AACGTTTG,0.00631
21,CATAGAAC,-0.138
22,GTGCTCTA,-0.0403
23,AGATAACA,0.351
24,ATCGTAAG,0.0715
25,CCCGCGAA,-0.24

row,Sequence,PBM E-score
1,CGTGCATC,-0.116
2,ACTGCCGC,-0.208
3,AGTAAAAC,0.256
4,GAAGATCC,-0.164
5,CTTCCAAA,0.0123
6,CGGAGCTC,-0.165
7,CCTTTTAC,0.187
8,AACAAATG,0.169
9,GGACATAC,-0.0257
10,ACTTAGAT,0.132
11,ATGCAGAC,0.0549
12,TCAGGCAA,-0.136
13,CCCATGAA,-0.163
14,AGTGATAA,-0.0125
15,AAAGCAAG,-0.0219
16,GCTTAAGA,-0.113
17,AAGATTCG,0.0306
18,AGCTAACG,0.117
19,CGTTTGCA,0.11
